Measurements taken from the supplement of paper PMC10600219.
Structures can show the parent of a compound that is named as a salt. ± gives the standard deviation of the averaged measurements. The full ranking holds about 2,800 compounds; the median of “cell viability relative to vehicle” is about 0.98, and the lowest 2% start at about 0.45. This is one part of the list.

The compounds below were run on NCI-H2228 alectinib-DTP (assay: cell viability relative to vehicle (fraction of vehicle); NCI-H2228 is an ALK-positive lung cancer line and DTP means drug-tolerant persister; higher = less growth inhibition). Conditions: 100 nM; treatment time 6 days.
Method in brief: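 Drug-tolerant persister NCI-H2228 cells, produced by 13 days in 1000 nM of a targeted drug, and their parental counterparts were seeded into 384-well plates and, the following day, given the 3114-agent TargetMol anti-cancer compound library at 100 nM or DMSO vehicle. After 6 days, the CellTiter-Glo 3D Cell Viability Assay was used to read ATP. Each entry reports viability compared with vehicle-treated cells.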

Row | Structure (SMILES) | cell viability
1 | CN1Cc2c(ccc3c2OCO3)[C@@H]2[C@H]1c1cc3c(cc1C[C@@H]2O)OCO3 [Chelidonine] | 0.955
2 | CC1(C)C(C(=O)Nc2ccc(S(=O)(=O)c3ccc(NC(=O)C4C(C)(C)C4(C)C)cc3)cc2)C1(C)C | 0.828
3 | C[C@]12CC[C@@H]3c4ccc(OC(=O)N(CCCl)CCCl)cc4CC[C@H]3[C@@H]1CC[C@@H]2OP(=O)(O)O [Estramustine phosphate sodium] | 1.08
4 | COc1cc2cc(c1Cl)N(C)C(=O)C[C@H](OC(=O)C(C)C)[C@]1(C)O[C@@H]1[C@H](C)[C@@H]1C[C@@](O)(NC(=O)O1)[C@H](OC)/C=C/C=C(\C)C2 [Ansamitocin P-3] | 0.499
5 | COC(=O)[C@@H](N)CCCNC(=N)N[N+](=O)[O-] [L-NAME hydrochloride] | 1.08
6 | O=c1ccc2cc(O[C@@H]3O[C@H](CO)[C@@H](O)[C@H](O)[C@H]3O)c(O)cc2o1 [Esculin] | 0.855
7 | Cc1ccc(/N=C/N(C)/C=N/c2ccc(C)cc2C)c(C)c1 [Amitraz] | 0.902
8 | NCC(CC(=O)O)c1ccc(Cl)cc1 (configuration not stated) [Baclofen] | 1.09
9 | CC(=O)O[C@H]1CC[C@H]2[C@@H]3CCC4=CC(=O)CCC4=C3C=C[C@]12C [Trenbolone acetate] | 1.15
10 | CC(C)[C@]12O[C@H]1[C@@H]1O[C@]13[C@]1(O[C@H]1C[C@H]1C4=C(CC[C@@]13C)C(=O)OC4)[C@@H]2O [Triptolide] | 0.133
11 | NC[C@H](CC(=O)O)c1ccc(Cl)cc1 [(R)-baclofen] | 1.07
12 | CC(C)(C)c1cc(C=C(C#N)C#N)cc(Br)c1O | 0.934
13 | CC(C)=CCC[C@](C)(O)[C@H]1CC[C@]2(C)[C@@H]1[C@H](O)C[C@@H]1[C@@]3(C)CC[C@H](O[C@@H]4O[C@H](CO)[C@@H](O)[C@H](O)[C@H]4O)C(C)(C)[C@@H]3CC[C@]12C [Ginsenoside Rh2] | 0.96 ± 0.11
14 | CC(NC(C)(C)C)C(=O)c1cccc(Cl)c1 (configuration not stated) [Bupropion hydrochloride] | 0.907
15 | Cn1c(CCCC(=O)O)nc2cc(N(CCCl)CCCl)ccc21 [Bendamustine hydrochloride] | 1.15
16 | CC1=C2C(=O)[C@H]3[C@@H](CC=C4C[C@@H](O)CC[C@@]43C)[C@@H]2CC[C@]12O[C@@H]1C[C@H](C)CN[C@H]1[C@H]2C [Jervine] | 0.899
17 | O=C1CC[C@@]2(O)[C@H]3Cc4ccc(O)c5c4[C@@]2(CCN3CC2CC2)[C@H]1O5 [Naltrexone hydrochloride] | 0.865
18 | COc1ccc2c(c1O)-c1c(OC)c(OC)cc3c1[C@H](C2)N(C)CC3 [(+)-Isocorydine hydrochloride] | 0.9
19 | CC1(C)C(=O)N(c2ccc(C#N)c(C(F)(F)F)c2)C(=O)N1CCCCO | 1.23
20 | Clc1ccc(OC[C@H]2CCN2)cn1 [Tebanicline hydrochloride] | 0.94
21 | N[C@@H]1C[C@H]1c1ccccc1 [Tranylcypromine (2-PCPA) hydrochloride] | 1.12

Row | Structure (SMILES) | cell viability
22 | Cc1sc2c(c1C)C(c1ccc(Cl)cc1)=N[C@@H](CC(N)=O)c1nnc(C)n1-2 | 0.76
23 | CN1[C@@H]2C[C@@H](OC(=O)[C@H](CO)c3ccccc3)C[C@H]1[C@@H]1O[C@@H]12 [Scopolamine HBr] | 0.901
24 | COc1ccc(N(C(=O)Oc2c(C)cccc2C)c2ccnc(Nc3ccc(N4CCN(C)CC4)cc3)n2)c(OC)c1 | 0.944
25 | COC1=C[C@@H]2[C@@H]3Cc4ccc(OC)c(O)c4[C@]2(CCN3C)CC1=O [Sinomenine hydrochloride] | 1.04
26 | C/C(=C\c1csc(C)n1)[C@@H]1C[C@@H]2O[C@@H]2CCC[C@H](C)[C@H](O)[C@@H](C)C(=O)C(C)(C)[C@@H](O)CC(=O)O1 [Epothilone A] | 0.529
27 | CC(O)(CS(=O)(=O)c1ccc(F)cc1)C(=O)Nc1ccc(C#N)c(C(F)(F)F)c1 (configuration not stated) [Bicalutamide] | 1.21
28 | CN1CCc2cc3c(cc2C1C1OC(=O)c2c1ccc1c2OCO1)OCO3 (single isomer, unassigned; (+)) [(+)-Bicuculline] | 0.971
29 | CCOC(=O)c1cncn1[C@H](C)c1ccccc1 [Etomidate] | 1.11
30 | CNC(=O)Oc1cccc2ccccc12 [Carbaryl] | 0.911
31 | O=C([O-])C(Cl)Cl.[Na+] [Sodium Dichloroacetate] | 1.11
32 | CO[C@H]1C[C@H](O[C@H]2CC[C@]3(C)[C@H]4CC[C@]5(C)[C@@H](C6=CC(=O)OC6)CC[C@]5(O)[C@@H]4CC[C@]3(O)C2)O[C@H](C)[C@H]1O[C@@H]1O[C@H](CO)[C@@H](O)[C@H](O)[C@H]1O [Periplocin] | 0.443
33 | NCC1(CC(=O)O)CCCCC1 [Gabapentin] | 1.13
34 | O=c1cccc2n1C[C@@H]1CNC[C@H]2C1 [Cytisine] | 1.18
35 | CC(=O)O[C@H]1C(=O)[C@@]2(C)[C@H]([C@H](OC(=O)c3ccccc3)[C@]3(O)C[C@H](O)C(C)=C1C3(C)C)[C@]1(OC(C)=O)CO[C@@H]1C[C@@H]2O [Baccatin III] | 1
36 | C[C@]12CC[C@H](O)C[C@H]1CC[C@@H]1[C@@H]2CC[C@]2(C)[C@@H](c3ccc(=O)oc3)C[C@H]3O[C@]132 [Resibufogenin] | 1.07
37 | CC(C)(C)c1cc(C=C(C#N)C#N)cc(C(C)(C)C)c1O [Tyrphostin 9] | 0.865
38 | O=C(O)c1nn(Cc2ccc(Cl)cc2Cl)c2ccccc12 [Lonidamine] | 0.991
39 | N#C[C@H](O[C@@H]1O[C@H](CO[C@@H]2O[C@H](CO)[C@@H](O)[C@H](O)[C@H]2O)[C@@H](O)[C@H](O)[C@H]1O)c1ccccc1 [Amygdalin] | 0.879
40 | COc1cc2c(c(OC)c1OC)-c1ccc(OC)c(=O)cc1[C@@H](NC(C)=O)CC2 [Colchicine] | 0.604
41 | CN(C(=O)/C=C/c1ccoc1)[C@@H]1CC[C@@]2(O)[C@H]3Cc4ccc(O)c5c4[C@@]2(CCN3CC2CC2)[C@H]1O5 [Nalfurafine hydrochloride] | 0.992
42 | COc1ccc2c(c1OC)CN1CCc3cc4c(cc3C1C2)OCO4 (configuration not stated) [Tetrahydroberberine THB] | 1.01
